Data: patent US6693079

Experiments:
[1] = biological target: T1, recombinant human IGFBP-3 (human, UniProt P17936); assay: competitive displacement of 125I-IGF-I from plate-coated rhIGFBP-3
T1 construct: also called rhIGFBP-3; biotinylated IGFBP-3

[2] = biological target: T2, recombinant human IGFBP-1 (human, UniProt P08833 26-259); assay: competitive displacement of 125I-IGF-I from plate-coated rhIGFBP-1
T2 construct: Plate-coated, biotinylated or coupled to a dextran chip, depending on the assay; also called rhIGFBP-1; biotinylated IGFBP-1
T2 sequence (looked up): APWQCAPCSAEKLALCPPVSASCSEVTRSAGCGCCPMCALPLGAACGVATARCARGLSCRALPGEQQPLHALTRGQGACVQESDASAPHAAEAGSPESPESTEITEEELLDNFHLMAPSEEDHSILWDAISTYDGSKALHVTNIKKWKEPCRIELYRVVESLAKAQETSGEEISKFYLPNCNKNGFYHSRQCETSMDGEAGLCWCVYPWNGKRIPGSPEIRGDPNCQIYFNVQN

T1 sequence (P17936 28-291 limits assumed): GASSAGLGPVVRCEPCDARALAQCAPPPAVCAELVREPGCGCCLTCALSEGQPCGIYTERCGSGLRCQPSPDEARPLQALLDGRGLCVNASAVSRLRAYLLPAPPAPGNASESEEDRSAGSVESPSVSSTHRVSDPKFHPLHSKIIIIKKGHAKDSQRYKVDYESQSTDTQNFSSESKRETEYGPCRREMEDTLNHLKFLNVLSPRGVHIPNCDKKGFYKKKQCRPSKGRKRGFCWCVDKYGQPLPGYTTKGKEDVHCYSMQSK

B1: (Leu^24,Ala^31)hIGF-I (ligand)
chain: not shown
notes: mature; also called IGF-M; IGF mutant
- binding result [1]: binds
- binding result [2]: binds
